{"source": "PubChem BioAssay (NCI)", "experiment_in_all_cases": "NCI tumour cell line growth inhibition, 48 h", "key": {"[1]": {"system": "786-0 renal"}, "[2]": {"system": "A498 renal"}, "[3]": {"system": "ACHN renal"}, "[4]": {"system": "CAKI-1 renal"}, "[5]": {"system": "CCRF-CEM leukemia"}, "[6]": {"system": "COLO 205 colon"}, "[7]": {"system": "DLD-1 colon"}, "[8]": {"system": "DMS 273 small cell lung"}, "[9]": {"system": "EKVX NSCLC"}, "[10]": {"system": "HCC-2998 colon"}, "[11]": {"system": "HCT-116 colon"}, "[12]": {"system": "HCT-15 colon"}, "[13]": {"system": "HL-60(TB) leukemia"}, "[14]": {"system": "HOP-18 NSCLC"}, "[15]": {"system": "HOP-62 NSCLC"}, "[16]": {"system": "HOP-92 NSCLC"}, "[17]": {"system": "HT29 colon"}, "[18]": {"system": "IGROV1 ovarian"}, "[19]": {"system": "K-562 leukemia"}, "[20]": {"system": "KM12 colon"}, "[21]": {"system": "LOX IMVI melanoma"}, "[22]": {"system": "LXFL 529 NSCLC"}, "[23]": {"system": "M14 melanoma"}, "[24]": {"system": "M19-MEL melanoma"}, "[25]": {"system": "MALME-3M melanoma"}, "[26]": {"system": "MOLT-4 leukemia"}, "[27]": {"system": "NCI-H226 lung"}, "[28]": {"system": "NCI-H23 lung"}, "[29]": {"system": "NCI-H460 lung"}, "[30]": {"system": "NCI-H522 lung"}, "[31]": {"system": "OVCAR-3 ovarian"}, "[32]": {"system": "OVCAR-4 ovarian"}, "[33]": {"system": "OVCAR-5 ovarian"}, "[34]": {"system": "OVCAR-8 ovarian"}, "[35]": {"system": "RPMI-8226 leukemia"}, "[36]": {"system": "RXF 393 renal"}, "[37]": {"system": "RXF-631 renal"}, "[38]": {"system": "SF-268 CNS"}, "[39]": {"system": "SK-MEL-28 melanoma"}, "[40]": {"system": "SK-MEL-5 melanoma"}, "[41]": {"system": "SK-OV-3 ovarian"}, "[42]": {"system": "SN12C renal"}, "[43]": {"system": "SNB-19 CNS"}, "[44]": {"system": "SNB-75 CNS"}, "[45]": {"system": "SNB-78 CNS"}, "[46]": {"system": "SR leukemia"}, "[47]": {"system": "SW-620 colon"}, "[48]": {"system": "TK-10 renal"}, "[49]": {"system": "U251 CNS"}, "[50]": {"system": "UACC-257 melanoma"}, "[51]": {"system": "UACC-62 melanoma"}, "[52]": {"system": "UO-31 renal"}}, "note": "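Each compound was tested at five concentrations against cells in 96-well plates for 48 hours. At the TGI there is no net growth.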"}
{"smiles": "CCCCOC(=O)Oc1cc2c(c(OC)c1OC)-c1ccc(SC)c(=O)cc1[C@@H](NC(C)=O)CC2", "values": [{"measurement": "TGI", "setting": "[1]", "value": 60, "unit": "µM"}, {"measurement": "TGI", "setting": "[2]", "value": 0.224, "unit": "µM"}, {"measurement": "TGI", "setting": "[3]", "value": 86.7, "unit": "µM"}, {"measurement": "TGI", "setting": "[4]", "value": 70.6, "unit": "µM"}, {"measurement": "TGI", "setting": "[5]", "value": "> 100", "unit": "µM"}, {"measurement": "TGI", "setting": "[6]", "value": 0.0168, "unit": "µM"}, {"measurement": "TGI", "setting": "[7]", "value": "> 100", "unit": "µM"}, {"measurement": "TGI", "setting": "[8]", "value": "> 100", "unit": "µM"}, {"measurement": "TGI", "setting": "[9]", "value": "> 100", "unit": "µM"}, {"measurement": "TGI", "setting": "[10]", "value": 54, "unit": "µM"}, {"measurement": "TGI", "setting": "[11]", "value": "> 100", "unit": "µM"}, {"measurement": "TGI", "setting": "[12]", "value": "> 100", "unit": "µM"}, {"measurement": "TGI", "setting": "[13]", "value": "< 0.01", "unit": "µM"}, {"measurement": "TGI", "setting": "[14]", "value": "> 100", "unit": "µM"}, {"measurement": "TGI", "setting": "[15]", "value": "> 100", "unit": "µM"}, {"measurement": "TGI", "setting": "[16]", "value": 0.477, "unit": "µM"}, {"measurement": "TGI", "setting": "[17]", "value": "> 100", "unit": "µM"}, {"measurement": "TGI", "setting": "[18]", "value": "> 100", "unit": "µM"}, {"measurement": "TGI", "setting": "[19]", "value": "> 100", "unit": "µM"}, {"measurement": "TGI", "setting": "[20]", "value": 0.0361, "unit": "µM"}, {"measurement": "TGI", "setting": "[21]", "value": "> 100", "unit": "µM"}, {"measurement": "TGI", "setting": "[22]", "value": 90.6, "unit": "µM"}, {"measurement": "TGI", "setting": "[23]", "value": "> 100", "unit": "µM"}, {"measurement": "TGI", "setting": "[24]", "value": "> 100", "unit": "µM"}, {"measurement": "TGI", "setting": "[25]", "value": "> 100", "unit": "µM"}, {"measurement": "TGI", "setting": "[26]", "value": 24.3, "unit": "µM"}, {"measurement": "TGI", "setting": "[27]", "value": 0.235, "unit": "µM"}, {"measurement": "TGI", "setting": "[28]", "value": 2.08, "unit": "µM"}, {"measurement": "TGI", "setting": "[29]", "value": 0.364, "unit": "µM"}, {"measurement": "TGI", "setting": "[30]", "value": "< 0.01", "unit": "µM"}, {"measurement": "TGI", "setting": "[31]", "value": "< 0.01", "unit": "µM"}, {"measurement": "TGI", "setting": "[32]", "value": 97.7, "unit": "µM"}, {"measurement": "TGI", "setting": "[33]", "value": "> 100", "unit": "µM"}, {"measurement": "TGI", "setting": "[34]", "value": "> 100", "unit": "µM"}, {"measurement": "TGI", "setting": "[35]", "value": 24.1, "unit": "µM"}, {"measurement": "TGI", "setting": "[36]", "value": 0.583, "unit": "µM"}, {"measurement": "TGI", "setting": "[37]", "value": 4.77, "unit": "µM"}, {"measurement": "TGI", "setting": "[38]", "value": "> 100", "unit": "µM"}, {"measurement": "TGI", "setting": "[39]", "value": 68.8, "unit": "µM"}, {"measurement": "TGI", "setting": "[40]", "value": 0.0134, "unit": "µM"}, {"measurement": "TGI", "setting": "[41]", "value": 4.64, "unit": "µM"}, {"measurement": "TGI", "setting": "[42]", "value": 51.3, "unit": "µM"}, {"measurement": "TGI", "setting": "[43]", "value": "> 100", "unit": "µM"}, {"measurement": "TGI", "setting": "[44]", "value": 4.64, "unit": "µM"}, {"measurement": "TGI", "setting": "[45]", "value": "> 100", "unit": "µM"}, {"measurement": "TGI", "setting": "[46]", "value": "> 100", "unit": "µM"}, {"measurement": "TGI", "setting": "[47]", "value": "> 100", "unit": "µM"}, {"measurement": "TGI", "setting": "[48]", "value": "> 100", "unit": "µM"}, {"measurement": "TGI", "setting": "[49]", "value": "> 100", "unit": "µM"}, {"measurement": "TGI", "setting": "[50]", "value": "> 100", "unit": "µM"}, {"measurement": "TGI", "setting": "[51]", "value": 59, "unit": "µM"}, {"measurement": "TGI", "setting": "[52]", "value": 97.7, "unit": "µM"}]}
